Experimental data reported in PubChem BioAssay AID1768 (National Center for Advancing Translational Sciences (NCATS), 2009).
Values joined by “and” are separate entries in the source; they are usually repeats but may differ in a detail not shown here. Identical values can stand only once. Among all 270,000 compounds or so, about 620 (0.23%) were called active. The inconclusive results got no clear call from the source; some entries with a clear call stand among them for comparison. Calls follow the shape of the dose curve; as a rule, active = well fitted inhibition curve with a large enough effect in the polarisation, with a control signal flat (not every such curve was filed as active); inconclusive = small, poorly fitted or top-dose-only effect, or effect the other way, or a change in a side signal; inactive = no such curve, though single readings can be large or run the other way; the % refers to the polarisation. A potency beside an inconclusive call is a rough fit, not a confirmed value. A note “side channel” means that the fit belongs to a control or component signal, not to the main read-out.

target: Menin (Homo sapiens) (UniProt O00255); experiment: qHTS Assay for Inhibitors Targeting the Menin-MLL Interaction in MLL Related Leukemias: Competition With Texas Red Labeled MLL-derived Mutant Peptide; settings: fluorescence polarization; series mostly up to 61.6 µM
Potency is read from the fitted curve at half-maximal effect; tags tell the direction and shape of the fitted curve or compound fluorescence and quenching.

Sequence of UniProt O00255 (O00255 whole entry, looked up): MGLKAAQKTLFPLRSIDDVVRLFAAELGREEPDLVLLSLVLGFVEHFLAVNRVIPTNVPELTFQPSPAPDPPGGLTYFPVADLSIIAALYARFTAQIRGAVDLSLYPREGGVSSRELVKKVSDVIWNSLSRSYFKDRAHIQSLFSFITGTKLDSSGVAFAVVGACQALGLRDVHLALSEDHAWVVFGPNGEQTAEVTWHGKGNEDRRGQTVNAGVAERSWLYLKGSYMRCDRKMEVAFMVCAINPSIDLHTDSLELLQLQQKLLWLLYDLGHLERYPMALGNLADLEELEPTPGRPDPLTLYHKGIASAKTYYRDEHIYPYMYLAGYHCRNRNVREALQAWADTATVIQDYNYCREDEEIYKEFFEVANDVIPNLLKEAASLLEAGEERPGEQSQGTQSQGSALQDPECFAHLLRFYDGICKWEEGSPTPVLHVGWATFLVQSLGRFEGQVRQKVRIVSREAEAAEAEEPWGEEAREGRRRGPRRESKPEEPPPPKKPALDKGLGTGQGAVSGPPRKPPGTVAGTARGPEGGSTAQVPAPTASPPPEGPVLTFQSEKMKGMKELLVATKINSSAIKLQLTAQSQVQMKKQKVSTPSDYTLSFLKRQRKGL

| Structure (SMILES) | Potency |
| --- | --- |
| O=C(N/N=C/c1ccc(O)cc1O)/C(=C/c1ccccc1)CCO | inactive |
| Cc1ccc(Nc2nc(-c3sc(C)nc3C)cs2)cc1 | inconclusive: 22.4 µM [quencher, side channel, single point] |
| Nc1cc(=O)nc(SCC(=O)Nc2ccccc2)n1-c1ccccc1 | inactive |
| O=C(N/N=C/C=C\c1ccccc1)c1cnccn1 | inactive |
| CCOc1ccc(NC(=O)c2cc(S(=O)(=O)N3CCCCC3)c[nH]2)cc1 | inconclusive: 28.2 µM [fluorescent, side channel, single point] |
| COc1cc(OC)cc(C(=O)NNC(=O)c2cc3ccccc3cc2O)c1 | inconclusive: 10 µM [quencher, side channel, partial curve] |
| COc1ccc(Nc2nnc(-c3ccc(C(N)=O)cc3)c3ccccc23)cc1 | inconclusive: 44.7 µM [inhibitor, partial curve, poor fit] |
| Nc1nonc1N/N=C/c1c(O)ccc2ccccc12 | inconclusive: 12.6 µM [quencher, side channel, partial curve] |
| CN(Cc1c(O)ccc2c1oc(=O)c1ccccc12)C1CCCCC1 | inconclusive: 8.91 µM [inhibitor, partial curve] |
| COc1ccc(-c2[nH]ncc2N=Nc2cc(C)cc(C)c2)cc1 | inconclusive: 31.6 µM [quencher, side channel, partial curve] |
| CS(=O)(=O)Nc1cccc(-c2nc(Nc3ccccc3)c3ccccc3n2)c1 | inconclusive: 28.2 µM [quencher, side channel, partial curve] |
| Nc1ccc(S(=O)(=O)Nc2nccc(/C=C/c3ccccc3F)n2)cc1 | inconclusive: 39.8 µM [inhibitor, single point] |
| CC(C)(C)NC(=O)c1cc(NC(=O)c2cccs2)cc(NC(=O)c2cccs2)c1 | inconclusive: 10 µM [fluorescent, side channel, partial curve] |
| O=C1N=c2ccccc2=C1c1sc(Nc2ccc(O)cc2)nc1O | inconclusive: 22.4 µM [quencher, side channel, partial curve] |
| Cc1ccc(S(=O)(=O)N/N=C/c2cc(Br)c(C)o2)cc1 | inactive |
| Cc1ccc(S(=O)(=O)Nc2nc(-c3ccccc3)cs2)cc1 | inconclusive: 35.5 µM [quencher, side channel, single point] |
| CNC(=O)c1sc(Nc2ccc(OCc3ccccc3)cc2)nc1C | inconclusive: 25.1 µM [quencher, side channel, single point] |
| O=C1CC(c2ccccc2)CC(O)=C1C=NCc1ccccc1Cl (stereo not drawn) | inconclusive: 39.8 µM [fluorescent, side channel, single point] |
| O=c1cc(-c2ccccc2Cl)oc2cccc(O)c12 | inconclusive: 35.5 µM [inhibitor, single point] and inconclusive: 44.7 µM [fluorescent, side channel, single point] |
| N#CCc1c(C#N)c(N)nc(N2CCN(c3ccc(F)cc3)CC2)c1C#N | inconclusive: 20 µM [quencher, side channel, partial curve] |

| Structure (SMILES) | Potency |
| --- | --- |
| CC(=O)N(CCc1ccccc1)Cc1cc2ccc(C)c(C)c2[nH]c1=O | inconclusive: 39.8 µM [inhibitor, single point] |
| COc1ccc(-c2cnnc(N/N=C/c3ccc(-c4ccc([N+](=O)[O-])cc4)o3)n2)cc1 | inconclusive: 79.4 µM [quencher, side channel, partial curve] |
| COc1ccc(-c2cc(=O)n(-c3nc4ccccc4[nH]3)[nH]2)cc1 | inconclusive: 31.6 µM [quencher, side channel, single point] |
| CCOC(=O)Nc1nnc(-c2ccccc2OC)s1 | inactive |
| COc1ccc2nc(NC(=O)c3ccccc3O)sc2c1 | inconclusive: 10 µM [quencher, side channel, partial curve] |
| COc1ccc(NC(=O)c2cc(Br)c(Br)s2)cn1 | inconclusive: 11.2 µM [quencher, side channel, partial curve] |
| Cc1cccc(-c2noc(Cc3ccccc3)n2)c1 | inconclusive: 35.5 µM [fluorescent, side channel, single point] |
| COc1ccc(-c2csc(NC(=O)/C(N=Nc3ccccc3)=C(\C)O)n2)cc1 | inconclusive: 12.6 µM [quencher, side channel, partial curve] |
| CCOCCOC(=O)c1ccc(NC(=O)C2COc3ccccc3O2)cc1 (stereo not drawn) | inconclusive: 10 µM [inhibitor, partial curve] |
| O=[N+]([O-])c1cccc2ccc(/C=C/c3ccc(F)cc3)nc12 | inconclusive: 11.2 µM [quencher, side channel, partial curve] |
| Clc1ccc(Nc2nc(-c3cccs3)cs2)nc1 | inconclusive: 31.6 µM [quencher, side channel, partial curve] |
| CC(=O)OC[C@@H]1O[C@@H](O/N=C2/C[C@@H](O)[C@@H](O)[C@@H]3[C@@H]4C(=O)N(Cc5ccc6c(c5)OCO6)C(=O)[C@H]4CC[C@@H]23)[C@H](OC(C)=O)[C@H](OC(C)=O)[C@@H]1OC(C)=O | inconclusive: 3.98 µM [quencher, side channel, single point] |
| Cc1[nH]c2c(C)cccc2c1CCNS(=O)(=O)c1cccc([N+](=O)[O-])c1 | inconclusive: 31.6 µM [quencher, side channel, partial curve] |
| Nc1ccc(S(N)(=O)=O)cc1N | inconclusive: 25.1 µM [quencher, side channel, partial curve] |
| CCOC(=O)c1c(NC(=O)Cn2nnc(-c3ccc(Cl)cc3)n2)sc(CC)c1C | inactive |
| Cc1cc[n+](-c2[nH]c(=O)sc2/C=N/NC([S-])=Nc2ccccc2)cc1 | inactive |
| O=C(Nc1cccnc1)c1ccccc1O | inconclusive: 39.8 µM [inhibitor, single point] |
| O=C(CCN1CCN(C/C=C/c2ccccc2)CC1)Nc1ccc(Cl)cc1 | inactive |
| O=C(CCc1nnc(Cc2ccc(-c3ccccc3)cc2)o1)NCCc1cccnc1 | inconclusive: 15.8 µM [fluorescent, side channel, partial curve] |
| CC(=O)C1=C(C)NC(SCC(=O)c2ccc(Cl)c(Cl)c2)=C(C#N)C1c1ccco1 (stereo not drawn) | inconclusive: 35.5 µM [quencher, side channel, single point] |

| Structure (SMILES) | Potency |
| --- | --- |
| OC1c2ccccc2-c2nc3ccccc3cc21 (stereo not drawn) | inconclusive: 39.8 µM [quencher, side channel, partial curve] |
| C=CCN1C(=O)[C@]2(c3ccccc31)C1CCCC=C1C(C#N)=C(N)C2(C#N)C#N (stereo partly drawn) | inconclusive: 15.8 µM [inhibitor, partial curve] |
| O=C(Nc1cccc(NC(=O)c2cccc(F)c2)c1)c1ccccc1 | inconclusive: 39.8 µM [fluorescent, single point] |
| Cc1cc(C)c2c(c1)-c1c(ssc1=S)C(C)(C)N2C(=O)CN1C(=O)c2ccccc2C1=O | inconclusive: 14.1 µM [quencher, side channel, partial curve] |
| CCCC(C)C(=O)Nc1nc(C)c(-c2csc(Nc3cc(Cl)ccc3C)n2)s1 (stereo not drawn) | inconclusive: 10 µM [quencher, side channel, partial curve] |
| COC(=O)[C@@]1(Cc2ccc(OC)cc2)[C@H]2c3cc(C(=O)N4CCCC4)n(Cc4cc(C)n(C)n4)c3C[C@H]2CN1C(=O)c1ccccc1 | inconclusive: 7.08 µM [fluorescent, side channel, full curve, poor fit] |
| COc1cc2c3c(c1)/C(=C1/SC(NC(C)=O)=NC1=O)C(=O)N3C(C)(C)C=C2C | inconclusive: 22.4 µM [quencher, side channel, partial curve] |
| CCCCCc1ccc(CC(=O)Nn2c(C)nc3ccccc3c2=O)cc1 | inconclusive: 31.6 µM [quencher, side channel, single point] |
| CC1=C(C#N)C(=O)OC(C)(C)C1 | inactive |
| COC(=O)CN1C(=S)N(c2ccccc2)C(=O)C1CC(=O)Nc1ccc(Cl)cc1 (stereo not drawn) | inconclusive: 17.8 µM [quencher, side channel, partial curve] |
| NS(=O)(=O)c1ccc(NC(=O)c2cc(-c3ccccc3O)n[nH]2)cc1 | inconclusive: 6.31 µM [fluorescent, single point] |
| O=[N+]([O-])c1ccccc1N/N=C1\CCc2ccccc21 | inconclusive: 14.1 µM [quencher, side channel, partial curve] |
| COc1cccc(-c2cc(C(=O)NCc3ccc(Cl)cc3)no2)c1 | inconclusive: 31.6 µM [inhibitor, single point] |
| CCCCn1c(N)c(Sc2ccc(C)cc2)c(=O)[nH]c1=O | inactive |
| CCn1c(SCC(=O)NCCOC)nc2sc3c(c2c1=O)CCCC3 | inactive |
| Cc1ccc(Nc2ccc([N+](=O)[O-])cn2)cc1Cl | inconclusive: 17.8 µM [quencher, side channel, single point] |
| CCOC(=O)CC1(C)SC(NC(C)=O)=NN1C(C)=O (stereo not drawn) | inconclusive: 28.2 µM [quencher, side channel, single point] |
| Cc1cccc2c1-c1sc(C(=O)Nc3cccnc3)cc1CO2 | inconclusive: 11.2 µM [quencher, side channel, partial curve] |
